# Reference: publication PMC4336329 (PLoS ONE, 2015)
# Screen size: about 310,000 compounds; about 14,000 (4.5%) showed an effect of 50% or more. Effects have a minus sign here. Some of the results follow.
# Biological target: human ether-à-go-go-related gene (hERG) potassium channel (human, UniProt Q12809)
# Experiment: primary screen, population patch clamp on CHO cells stably expressing hERG
# 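Further: peak tail current of the secondary pulse compared with the same well before compound.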
# Sequence of human ether-à-go-go-related gene (hERG) potassium channel (Q12809 whole entry, looked up): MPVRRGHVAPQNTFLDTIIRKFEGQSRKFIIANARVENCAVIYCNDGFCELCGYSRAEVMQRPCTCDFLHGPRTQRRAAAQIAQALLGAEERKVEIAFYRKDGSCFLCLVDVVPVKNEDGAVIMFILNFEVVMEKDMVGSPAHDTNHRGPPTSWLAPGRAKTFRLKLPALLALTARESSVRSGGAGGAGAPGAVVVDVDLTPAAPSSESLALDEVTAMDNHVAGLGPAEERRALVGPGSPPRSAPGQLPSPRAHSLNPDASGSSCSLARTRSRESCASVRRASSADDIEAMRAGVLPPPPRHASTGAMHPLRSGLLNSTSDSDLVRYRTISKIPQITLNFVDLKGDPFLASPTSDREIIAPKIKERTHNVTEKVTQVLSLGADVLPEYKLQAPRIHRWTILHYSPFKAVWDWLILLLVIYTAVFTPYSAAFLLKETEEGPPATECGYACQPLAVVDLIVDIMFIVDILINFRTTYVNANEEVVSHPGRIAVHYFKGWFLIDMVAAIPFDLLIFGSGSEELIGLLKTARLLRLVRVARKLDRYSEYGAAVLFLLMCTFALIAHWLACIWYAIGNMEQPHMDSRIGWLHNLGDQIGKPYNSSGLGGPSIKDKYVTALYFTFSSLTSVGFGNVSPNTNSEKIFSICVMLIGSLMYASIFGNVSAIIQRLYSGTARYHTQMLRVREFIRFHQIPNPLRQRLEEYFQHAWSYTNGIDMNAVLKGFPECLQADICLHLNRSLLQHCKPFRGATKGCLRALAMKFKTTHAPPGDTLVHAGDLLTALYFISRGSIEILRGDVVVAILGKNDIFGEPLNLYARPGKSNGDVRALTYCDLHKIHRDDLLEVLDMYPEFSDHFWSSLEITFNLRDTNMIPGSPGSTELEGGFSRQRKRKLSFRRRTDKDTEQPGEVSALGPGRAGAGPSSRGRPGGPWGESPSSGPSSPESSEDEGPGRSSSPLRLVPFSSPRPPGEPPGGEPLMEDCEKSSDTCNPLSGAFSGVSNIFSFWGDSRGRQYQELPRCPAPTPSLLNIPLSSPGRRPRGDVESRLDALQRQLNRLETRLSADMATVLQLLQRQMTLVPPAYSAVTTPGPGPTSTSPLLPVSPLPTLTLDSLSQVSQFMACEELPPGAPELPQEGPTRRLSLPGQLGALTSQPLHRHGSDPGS
row,SMILES,"hERG current change (%, negative = inhibition) at 10uM"
1,O=C1CN(C(=O)CSc2nnc3ccccn23)c2ccccc2N1,-2.81%
2,Cc1ccccc1C(=O)Nc1ccc(S(=O)(=O)N2CCN(C)CC2)cc1,4.25%
3,O=C(CN1C(=O)NC(c2ccc(F)cc2)C1=O)Nc1ccc2c(c1)OCCO2 (stereo not shown),4.59%
4,Cc1ccccc1CSCC(=O)NCc1ccco1,-4.96%
5,CSc1ccc(C2=CC(=O)C[C@H](c3ccc(Cl)cc3)C2)cc1,-0.631%
6,CC1(C)C(=O)N(c2ccccc2)C1c1ccccc1O (stereo not shown),-9.23%
7,c1ccc2cc(CNCc3cccc4ccccc34)ccc2c1,5.96%
8,CCOc1c([N+](=O)[O-])cc2c(C)c(C(=O)N3CCN(C)CC3)oc2c1OCC.Cl,-16.2%
9,CC(NC(=O)Nc1ccccc1)C(c1cccs1)N1CCN(C)CC1 (stereo not shown),-17.8%
10,COc1ccccc1C(=O)NNC(=O)c1cccc(O)c1,22.4%
11,COc1ccc(/C=C(\C#N)C(=O)Nc2cccc(C)n2)cc1,14.1%
12,CS(=O)(=O)c1ccc(Cl)c(NC(=O)c2cccc(-n3cnnn3)c2)c1,-65.6%
13,CCN1CCN(c2ncnc3c2cnn3-c2ccc(Cl)cc2)CC1,-22.1%
14,COc1ccc(CCNC(=S)NCc2cccs2)cc1OC,12.9%
15,O=C(C[n+]1cccc(/C=N/O)c1)N1CCCc2ccccc21.[Cl-],12.3%
16,COc1ccccc1/C=N/NC(=O)c1csc(C)c1C,-13.3%
17,CC(C)N(CC#CC(O)(c1ccccc1)c1ccccc1)C(C)C,-70.4%
18,Cc1cccc(NC(=S)N/N=C/C(C)c2ccccc2)c1C (stereo not shown),21.9%
19,CC(C)n1c(CN2CCN(C(=O)c3ccco3)CC2)nc2c1c(=O)n(C)c(=O)n2C,-7.57%
20,Cc1ccccc1NC(=S)C1=C(O)c2sccc2N(C)S1(=O)=O,12.2%
21,CCOC(=O)C1CCCN(Cc2nc3ccc([N+](=O)[O-])cc3c(=O)n2-c2ccc(OC)cc2OC)C1 (stereo not shown),-28.9%
22,COc1ccc(/C(C)=N/NC(=O)C(NC(=O)c2ccccc2)c2n[nH]c(=O)c3ccccc23)c(OC)c1 (stereo not shown),4.11%

row,SMILES,"hERG current change (%, negative = inhibition) at 10uM"
1,CC(C)CNC(=O)C(=O)NC1CCCC1,11.7%
2,C/C(=N/NC(=O)CNC(=O)c1ccco1)c1ccc(Cl)cc1,-1.47%
3,COC(=O)CNC(=O)C12CC3(C)CC(C)(CC(C)(C3)C1)C2,7.88%
4,Cc1ccc(C(=O)OCC(=O)Nc2ccc(C(N)=O)cc2)s1,10.1%
5,COc1ccc(/C=C/C(=O)NCC(=O)N/N=C/c2cc(Br)ccc2OCc2ccccc2)cc1,-0.646%
6,Cc1ccccc1OCC(=O)N1CCCc2ccccc21,-10.2%
7,COc1cc(C2C(=O)c3ccccc3C2=O)ccc1O,18.4%
8,O=C(NCC1CCCO1)C1c2ccccc2C(=O)N1C1CCCCCCC1 (stereo not shown),-0.14%
9,CCCCN(C(=O)CN1C(=O)C2CCCCC2C1=O)c1c(N)n(CCCC)c(=O)[nH]c1=O (stereo not shown),-8.58%
10,NC(=O)CSc1nnc(-c2ccc(S(=O)(=O)N3CCCC3)cc2)o1,5.83%
11,CN[C@H]1C[C@H]2O[C@@](C)([C@H]1OC)n1c3ccccc3c3c4c(c5c6ccccc6n2c5c31)C(=O)NC4,0.476%
12,CCOc1cc(CN2CCCCC2)ccc1OC,-8.28%
13,CCN1CCN(S(=O)(=O)c2cnc(Cl)c(Br)c2)CC1,46%
14,CCN(CC)c1ccc(N=Cc2ccc(N(CC)CC)cc2O)cc1,0.156%
15,O=C(COc1cccc(C(F)(F)F)c1)NCC(c1ccco1)N1CCCCC1 (stereo not shown),-36.5%
16,CC(=O)NCCc1nc2ccccc2n1CCOc1cccc(C)c1,3.45%
17,Nc1c(-c2ccccc2)c(CSc2nc3ccccc3[nH]2)nn1-c1ccc(Cl)cc1,7.01%
18,O=C(O)C1=C[C@H](c2ccc(Br)cc2)C[C@H](OCc2ccc(CO)cc2)O1,15.1%
19,CN1C(=O)N(S(=O)(=O)c2ccc(F)c(F)c2F)C(=O)C1(C)C,10.3%
20,O=C(N/N=C(/CC(=O)c1cccs1)C(F)(F)F)c1ccc(O)cc1,9.01%
21,Cl.Oc1ccc(N2CCN(C(c3cccs3)c3nnnn3CCc3ccccc3)CC2)cc1 (stereo not shown),5.4%
